Consider 1 molecule from article PMC3328385 (The Journal of Cell Biology, 2012).

The assay deals with T1, Munc13-4 (wild type, His6-tagged human Munc13-4) (human, UniProt Q70J99 1-1090).
T1 sequence: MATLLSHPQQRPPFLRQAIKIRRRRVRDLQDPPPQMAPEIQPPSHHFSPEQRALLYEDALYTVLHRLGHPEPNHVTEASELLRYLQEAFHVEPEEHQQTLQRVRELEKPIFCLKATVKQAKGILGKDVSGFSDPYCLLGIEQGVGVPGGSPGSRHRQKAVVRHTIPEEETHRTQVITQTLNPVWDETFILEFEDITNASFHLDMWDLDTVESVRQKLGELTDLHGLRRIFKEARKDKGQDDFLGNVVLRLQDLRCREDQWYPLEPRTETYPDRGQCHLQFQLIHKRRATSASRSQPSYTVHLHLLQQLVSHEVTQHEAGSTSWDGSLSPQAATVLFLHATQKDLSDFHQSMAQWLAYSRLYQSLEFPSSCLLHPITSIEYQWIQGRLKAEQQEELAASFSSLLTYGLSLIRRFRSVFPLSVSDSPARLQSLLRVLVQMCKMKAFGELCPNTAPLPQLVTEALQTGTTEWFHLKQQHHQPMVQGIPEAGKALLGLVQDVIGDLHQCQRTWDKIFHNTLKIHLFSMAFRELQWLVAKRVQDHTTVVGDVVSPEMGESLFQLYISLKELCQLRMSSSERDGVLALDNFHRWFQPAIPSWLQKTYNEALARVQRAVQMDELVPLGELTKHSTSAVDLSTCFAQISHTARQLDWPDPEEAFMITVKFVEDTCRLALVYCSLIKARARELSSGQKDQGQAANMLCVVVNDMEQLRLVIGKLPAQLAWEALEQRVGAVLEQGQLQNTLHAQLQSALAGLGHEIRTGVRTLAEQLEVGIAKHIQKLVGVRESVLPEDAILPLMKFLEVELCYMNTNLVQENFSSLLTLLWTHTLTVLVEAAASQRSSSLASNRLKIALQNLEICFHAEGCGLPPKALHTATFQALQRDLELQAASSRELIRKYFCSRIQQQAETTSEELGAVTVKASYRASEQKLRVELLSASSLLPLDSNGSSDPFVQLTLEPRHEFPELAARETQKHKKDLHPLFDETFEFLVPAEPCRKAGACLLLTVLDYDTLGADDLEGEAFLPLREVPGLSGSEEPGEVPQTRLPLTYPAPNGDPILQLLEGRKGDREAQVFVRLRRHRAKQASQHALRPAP
Briefly: SPR. A general note: Surface plasmon resonance follows binding to a sensor surface in real time, without labels.

B1: syntaxin-1([…]), H3 domain protein (domain or fragment)
chain: not shown
For the molecule B1, the binding result is “binds”.
